Among all 110,000 compounds or so, about 230 (0.21%) showed an effect of 50% or more. The list shows a part of the results.
The molecules below were run against DPAP1 (Plasmodium falciparum, UniProt Q8IIJ9) (assay: primary screen, percent inhibition; read by cleavage of a fluorogenic dipeptide substrate; higher = more effect of the substance).
Parameters: species or system P. falciparum D10 trophozoite lysates; single well
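Further: 30 min substrate incubation versus DMSO and 10 µM JCP410 controls.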

Chain of DPAP1 (Q8IIJ9 whole entry, looked up): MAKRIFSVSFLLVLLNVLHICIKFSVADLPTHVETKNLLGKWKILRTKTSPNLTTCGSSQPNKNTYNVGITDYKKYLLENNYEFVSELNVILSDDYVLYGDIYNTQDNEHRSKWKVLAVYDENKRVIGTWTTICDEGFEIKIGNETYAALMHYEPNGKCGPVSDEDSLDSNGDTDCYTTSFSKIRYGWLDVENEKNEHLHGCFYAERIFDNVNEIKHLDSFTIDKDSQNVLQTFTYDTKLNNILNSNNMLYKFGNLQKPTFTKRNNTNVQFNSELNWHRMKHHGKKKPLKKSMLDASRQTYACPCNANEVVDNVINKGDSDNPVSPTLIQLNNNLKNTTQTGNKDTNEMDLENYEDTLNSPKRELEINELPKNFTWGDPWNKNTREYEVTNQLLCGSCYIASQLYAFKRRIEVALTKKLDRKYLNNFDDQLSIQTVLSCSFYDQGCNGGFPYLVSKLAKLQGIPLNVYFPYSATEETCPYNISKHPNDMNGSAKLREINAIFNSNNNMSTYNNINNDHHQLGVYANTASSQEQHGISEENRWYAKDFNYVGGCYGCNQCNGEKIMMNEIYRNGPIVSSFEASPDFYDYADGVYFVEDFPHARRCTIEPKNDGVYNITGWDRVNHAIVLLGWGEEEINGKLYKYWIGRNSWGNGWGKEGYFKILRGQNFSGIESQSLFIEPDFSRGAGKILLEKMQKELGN

Structure (SMILES) | % Inhibition @ 10 uM [%]
COc1cc(C(=O)NCc2nc(-c3ccc(C)cc3)no2)cc(OC)c1OC | -2.99
CC(C)CCNC(=O)C1C2C=CC3(CN(Cc4cccnc4)C(=O)C13)O2 (stereo not drawn) | -5.8
COc1ccc(N(CC(=O)Nc2c(C)cccc2C)S(C)(=O)=O)cc1OC | 0.324
NS(=O)(=O)c1ccc(Cl)c(C(=O)Nc2cccc([N+](=O)[O-])c2)c1 | -3.52
CCOc1ccc2nc(NC(=O)C3CC3)sc2c1 | -3.5
Nc1cccc(NC(=O)c2cccc(Cl)c2)c1 | 3.32
O=C(O)CCCN1C(=O)c2cccc3cccc(c23)C1=O | -4.27
O=C(c1ccccc1-n1cccc1)N1N=C(C(F)F)CC1(O)C(F)F (stereo not drawn) | -3.71
COC(=O)C1=C(NC(=O)c2ccc(S(=O)(=O)N3CCOCC3)cc2)CCS1 | -0.053
CCCCSC1=C(C#N)C(=O)NC(c2ccc(C(=O)O)cc2)S1 (stereo not drawn) | -5.41
CCN(CCCNC(=O)Cn1nc(Cc2ccncc2)c2ccccc2c1=O)Cc1ccccc1 | 5.09
COc1ccc(-c2noc(CNC(=O)COc3ccc(C)cc3Br)n2)cc1 | 3.74
Cc1cc(Nc2cccc(C(=O)O)c2)nc2ccccc12 | -2.91
COc1ccc(-c2cc(C(F)F)n3ncc(C(=O)NCCCN4CCOCC4)c3n2)cc1 | -4.62
COc1ccc(/C=C2\SC(=O)N(Cc3ccc(F)cc3)C2=O)cc1OC | 0.24
Cc1ccc(CCP(=O)(O)CN2CCCCC2)cn1 | 5.3
O=C(O)CSc1nc2c(cnn2-c2ccccc2)c(=O)n1-c1ccc(F)cc1 | 4.61
Cc1ccc(CSc2nc3ccsc3c(=O)n2Cc2ccccn2)cc1 | -3.49
CCSCCO/C(O)=C1\C(C)=NC2=C(C(=O)CCC2)C1c1ccc(OCCO)c(OC)c1 (stereo not drawn) | 6.51
CC(=O)N1CCC2(CC1)OC(=O)C(C)=C2C(=O)N1CCCC1 | 2.37
Cc1cc(C)c(C(=O)/C=C(\N2CCCC2)C(F)(F)F)c(O)n1 | 3.38

Structure (SMILES) | % Inhibition @ 10 uM [%]
CCCCNC(=O)C1CC(=O)N(C2CCCCCC2)C1 (stereo not drawn) | 0.387
CCOC(=O)C1=C(CNCc2ccccc2Cl)NC(=O)NC1c1cc(C)ccc1C (stereo not drawn) | -2.63
N#C/C(=C\c1c(Oc2ccc(Cl)cc2)nc2ccccn2c1=O)C(=O)NCc1ccco1 | -0.828
O=C(c1cc(S(=O)(=O)N2CCCC2)c(Cl)cc1Cl)N1CCCC1 | 4.11
Cc1cccc(N2CCN(C(=O)c3cccnc3Cl)CC2)c1C | -5.85
N#Cc1cc2c(=O)n3ccccc3nc2n(Cc2ccc(F)cc2)c1=O | -2.28
CC1=C(C(=O)Nc2cccnc2)C(c2cccnc2)n2nc(SCc3ccccc3Cl)nc2N1 (stereo not drawn) | -1.43
COc1ccc(C)cc1S(=O)(=O)NCCN1CCOCC1 | -1.92
Cc1c(C)n(CC(O)CNC2CCCCC2C)c2ccccc12 (stereo not drawn) | -5
COc1ccc(Br)cc1Cn1nnc(C(=O)NCc2ccccc2)c1N | 1.26
CCOC(=O)N1CCC(/N=c2\c(O)c(O)\c2=N/CCc2ccc(S(N)(=O)=O)cc2)CC1 | 5.09
COC(=O)/C(=C/c1ccco1)NC(=O)c1ccccc1OC | -7.45
Cc1ccc(C(=O)N2CCN(c3ccc(F)cc3)CC2)cc1[N+](=O)[O-] | 0.273
O=C(CSCc1ccc(F)cc1)N1CCOCC1 | -1.21
COc1ccc(-c2nc3ccccc3nc2O)cc1 | 0.962
Cc1c(C(=O)N2CCCC(C)C2)sc2ncnc(N3CCCCC3C)c12 (stereo not drawn) | -0.458
C=CCNc1nc(Cl)nc(NC(C)(C)C)n1 | -4.66
CN1C(=O)C(=CNc2cc(Cl)ccc2C(=O)c2ccccc2)C(=O)N(C)C1=O | 7.18
Cc1cc(S(=O)(=O)NCCCSC2CCCCC2)ccc1F | 5.23
CN(CCO)S(=O)(=O)c1ccc(N)cc1 | -0.833
O=S(=O)(Nc1cc(Cl)ccc1Cl)c1ccccc1 | 6.18

Structure (SMILES) | % Inhibition @ 10 uM [%]
CC1=C(C(=O)OCCOc2ccccc2)C(c2cccc(F)c2F)CC(=O)N1 (stereo not drawn) | -1.62
O=C(NCc1ccccc1)c1ccc(COc2ccccc2Cl)o1 | -14.6
N#Cc1c(NC(=O)CO/N=C/c2ccccc2)oc(-c2ccccc2)c1-c1ccccc1 | -0.142
COc1ccc(CNC(=O)c2nc(S(=O)(=O)Cc3ccc(F)cc3)ncc2Cl)cc1 | -4.54
NC(=O)c1c(NC(=O)c2cccnc2Cl)sc2c1CCC2 | 1.34
CN(Cc1ccccc1)C(=O)Cn1ncc2c1-c1ccccc1OC2 | 1.72
CC(C)(C)c1ccc(C(=O)Nc2ccc3[nH]c(O)nc3c2)cc1 | 19.3
COC(=O)C1=C(C)N(Cc2ccccc2)C(=O)/C1=C\c1ccc(C)cc1 | -3.4
Cc1ccccc1NC(=O)C(C)N1C(=O)c2ccccc2C1=O (stereo not drawn) | -7.89
O=C(NCc1ccco1)c1cccc(N2C(=O)C3C4C=CC(C5CC45)C3C2=O)c1 (stereo not drawn) | -0.994
O=C(/C=C/c1ccc2c(c1)OCO2)NCCc1nc2ccccc2[nH]1 | 0.736
CN1CCN(c2ccc3nnc(CCC(=O)NCCC4=CCCCC4)n3n2)CC1 | -7.42
COc1ccc(-c2cc(C)no2)cc1S(=O)(=O)N1CCN(Cc2ccc3c(c2)OCO3)CC1 | -2.31
Cc1cc(SC(C)C(=O)O)nc2ccccc12 (stereo not drawn) | -0.169
Clc1cccc(Nc2nc3nonc3nc2N2CCCCC2)c1 | -1.28
CCOC(=O)N1CCN(CC2=CC[C@H]3C[C@@H]2C3(C)C)CC1 | -0.292
O=C(NCC1(c2ccccc2)CCCC1)C(c1ccccc1)c1ccccc1 | -1.99
OC1=C2C(=Nc3nc(SCc4ccccc4)nc(O)c3C2c2cccs2)CCC1 (stereo not drawn) | -2.04
COc1ccc(-c2nc(CNS(=O)(=O)N(C)C)cs2)cc1 | -2.67
O=C(c1nc2ccccc2s1)N1CCN(c2ccccn2)CC1 | 3.49
CC(C)Oc1ccc(CNc2ncnc3c2sc2nc4c(cc23)COC(C)(C)C4)cc1 | 7.89
